Data from publication PMC4336329 (PLoS ONE, 2015).
Out of some 310,000 compounds screened, about 14,000 (4.5%) showed an effect of 50% or more. Effects have a minus sign here. The list shows a part of the results.

biological target: human ether-à-go-go-related gene (hERG) potassium channel (human, UniProt Q12809); assay: primary screen, population patch clamp on CHO cells stably expressing hERG
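Note: peak tail current of the secondary pulse compared with the same well before compound.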

human ether-à-go-go-related gene (hERG) potassium channel, sequence (Q12809 whole entry, looked up): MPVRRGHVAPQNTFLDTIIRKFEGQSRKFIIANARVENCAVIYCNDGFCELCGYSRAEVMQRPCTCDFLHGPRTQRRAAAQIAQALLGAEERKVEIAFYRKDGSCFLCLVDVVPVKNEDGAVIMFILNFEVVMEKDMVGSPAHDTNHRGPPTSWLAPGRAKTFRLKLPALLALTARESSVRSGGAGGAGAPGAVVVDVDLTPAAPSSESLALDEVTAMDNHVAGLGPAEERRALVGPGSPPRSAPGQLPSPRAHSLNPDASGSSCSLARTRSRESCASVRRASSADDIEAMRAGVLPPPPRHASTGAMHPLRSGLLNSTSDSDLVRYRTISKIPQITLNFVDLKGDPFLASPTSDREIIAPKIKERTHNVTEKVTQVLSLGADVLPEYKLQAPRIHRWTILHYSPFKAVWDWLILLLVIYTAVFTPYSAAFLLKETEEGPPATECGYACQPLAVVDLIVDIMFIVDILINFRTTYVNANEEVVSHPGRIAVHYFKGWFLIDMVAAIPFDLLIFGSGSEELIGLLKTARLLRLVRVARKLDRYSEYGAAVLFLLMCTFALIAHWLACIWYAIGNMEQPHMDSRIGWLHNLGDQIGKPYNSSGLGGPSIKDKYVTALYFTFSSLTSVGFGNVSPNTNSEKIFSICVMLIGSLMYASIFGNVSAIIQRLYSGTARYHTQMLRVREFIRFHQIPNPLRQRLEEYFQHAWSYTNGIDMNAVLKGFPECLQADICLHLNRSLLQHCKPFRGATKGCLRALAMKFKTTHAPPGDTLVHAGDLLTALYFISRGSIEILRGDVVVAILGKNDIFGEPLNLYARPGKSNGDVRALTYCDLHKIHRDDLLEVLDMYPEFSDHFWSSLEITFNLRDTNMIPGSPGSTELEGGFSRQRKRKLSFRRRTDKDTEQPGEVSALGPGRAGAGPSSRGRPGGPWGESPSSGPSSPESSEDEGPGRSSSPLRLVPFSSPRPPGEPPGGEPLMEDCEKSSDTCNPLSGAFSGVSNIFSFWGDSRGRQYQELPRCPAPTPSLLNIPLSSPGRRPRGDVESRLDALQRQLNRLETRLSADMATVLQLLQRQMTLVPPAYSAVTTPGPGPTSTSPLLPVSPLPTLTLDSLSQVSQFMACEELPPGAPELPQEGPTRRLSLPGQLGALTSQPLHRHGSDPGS

Going from `CC(C)[C@H]1C(=O)N2CCC[C@H]2[C@]2(O)O[C@](NC(=O)[C@@H]3C=C4c5cccc6[nH]cc(c56)C[C@H]4N(C)C3)(C(C)C)C(=O)N12` to `COc1ccccc1N1CCN(C(=O)C2CCCN(S(=O)(=O)c3ccc(C)cc3)C2)CC1` (stereo not drawn), the “hERG current change (%, negative = inhibition) at 10uM” value falls from -22.7% to -38.3%.

First: COC(=O)c1ccc(NC(=O)CC2C(=O)N(c3ccc(C)cc3)C(=O)N2CC(C)C)cc1 (stereo not drawn)
Second: COc1ccccc1N1N=C(C(=O)c2ccccc2)C2C(=O)N(c3ccc(Br)cc3)C(=O)C21 (stereo not drawn)
The “hERG current change (%, negative = inhibition) at 10uM” value of the first is lower: -21.1% for the first, 2.61% for the second.

Compared with `CC(c1ccc(F)cc1)n1c(-c2ccc3ccccc3n2)n[nH]c1=S` (stereo not drawn), `Cn1c(=O)[nH]c(=O)c2c1nc(CN1CCN(c3ccc(F)cc3)CC1)n2CCCc1ccccc1` is lower in “hERG current change (%, negative = inhibition) at 10uM” value: 18.1% for the first, -46.8% for the second.

Compared with `COc1cccc([C@@H]2CC=C(C(=O)O)[C@H](c3ccc(F)cc3)N2S(=O)(=O)c2ccc(C)cc2)c1`, `CS(=O)(=O)NN1C(=O)c2ccccc2NC1c1cccc(O)c1` (stereo not drawn) is lower in “hERG current change (%, negative = inhibition) at 10uM” value: 22.1% for the first, 8.93% for the second.

Compared with `c1cn(CCCNC2CCCCCCC2)cn1`, `O=C(NC1CCCCC1)c1nc2c(nnn2Cc2ccccc2Cl)c(=O)[nH]1` is higher in “hERG current change (%, negative = inhibition) at 10uM” value: 8.98% for the first, 21.5% for the second.

Compared with `COc1ccc2c(c1)c(=O)oc1cc(O)ccc12`, `COc1ccc2oc(C(=O)OCC(=O)NC(=O)c3ccccc3)c(C)c2c1` is higher in “hERG current change (%, negative = inhibition) at 10uM” value: 3.99% for the first, 16.6% for the second.

Going from `Cc1cccc(N2CCN(S(=O)(=O)c3c(C)noc3/C=C/N(C)C)CC2)c1C` to `Cc1cc(-c2ccc(C(C)C)c(S(=O)(=O)NCCN3CCC(C)CC3)c2)on1`, the “hERG current change (%, negative = inhibition) at 10uM” value falls from 5.94% to -3.78%.

Going from `CNCCCC1c2ccccc2C=Cc2ccccc21.Cl` to `COc1ccccc1CN(C)C(=O)CN1C(=O)c2ccccc2C1=O`, the “hERG current change (%, negative = inhibition) at 10uM” value rises from 13.2% to 15.6%.

Going from `COc1ccc(CCNC(=O)CCS(=O)(=O)c2ccc3c(c2)NC(=O)C(C)S3)cc1OC` (stereo not drawn) to `COc1ccc(N(C(=O)c2snc(C(N)=O)c2N)C(C(=O)NCC2CCCO2)c2ccc(C)o2)cc1OC` (stereo not drawn), the “hERG current change (%, negative = inhibition) at 10uM” value rises from 11.4% to 23.6%.

Going from `Fc1ccccc1-c1nc(-c2cnccc2C(F)(F)F)no1` to `COCCNC(=O)CSc1nnc(-c2ccccc2F)n1Cc1ccccc1`, the “hERG current change (%, negative = inhibition) at 10uM” value falls from 10.1% to -5.26%.

Compared with `OC(CNCc1ccccc1Cl)C(F)(F)F` (stereo not drawn), `Nc1c(Cl)ncnc1NCc1ccccc1` is lower in “hERG current change (%, negative = inhibition) at 10uM” value: 12.2% for the first, 7.06% for the second.

Compared with `Cc1ccc(/C=C2/C(=O)NC(=O)N(CC3CCCO3)C2=O)s1` (stereo not drawn), `CC1CCCCN1C(=O)c1ccc(CS(=O)(=O)Cc2ccccc2)cc1` (stereo not drawn) is lower in “hERG current change (%, negative = inhibition) at 10uM” value: -1.61% for the first, -2.32% for the second.

Compared with `CCc1sc(C(=O)Nc2cccnc2)cc1Br`, `COC(=O)c1sc(NC(=O)COc2cccc(C)c2)nc1C` is higher in “hERG current change (%, negative = inhibition) at 10uM” value: 5.88% for the first, 7.05% for the second.

First: CCOc1ccc(/C(O)=C2\C(=O)C(=O)N(CCN(C)C)C2c2cccc(OC)c2OC)cc1Cl (stereo not drawn)
Second: CCOc1ccc(CN(C)C(=O)c2cccnc2SC)cc1OC
The “hERG current change (%, negative = inhibition) at 10uM” value of the first is lower: -0.687% for the first, 8.9% for the second.

Compared with `O=C(Cc1cn2ccsc2n1)Nc1ccccn1`, `NNC(=O)Cn1c(-c2ccccc2)cc(=O)n2ncnc12` is lower in “hERG current change (%, negative = inhibition) at 10uM” value: 11.7% for the first, 5.38% for the second.

Compared with `COC(=O)Cn1cc(/C=C(/C#N)C(=O)N2CCOCC2)c2ccccc21`, `Nc1c(C(=O)NCCN2CCOCC2)c2nc3ccccc3nc2n1CCc1ccccc1F` is lower in “hERG current change (%, negative = inhibition) at 10uM” value: 6.47% for the first, -27.2% for the second.

Going from `C[NH+](C)CC(C)(C)CNS(=O)(=O)c1ccc(Cl)c(Cl)c1.[Cl-]` to `CN(C)S(=O)(=O)c1ccc(Cl)c(NC(=O)COC(=O)CCC(=O)c2cccs2)c1`, the “hERG current change (%, negative = inhibition) at 10uM” value falls from 4.29% to -24.9%.

Compared with `OCC(Cc1ccc2c(c1)OCO2)C(CO)Cc1ccc2c(c1)OCO2` (stereo not drawn), `Nc1c(C(=O)Nc2ccc3c(c2)OCCO3)nnn1Cc1cccc(Br)c1` is lower in “hERG current change (%, negative = inhibition) at 10uM” value: 7.84% for the first, -5.91% for the second.

First: O=C(N/N=C/c1c[nH]c2ccccc12)c1cccc(Cl)c1
Second: O=C(NCc1ccccc1)c1ccc(S(=O)(=O)C(F)F)cc1
The “hERG current change (%, negative = inhibition) at 10uM” value of the first is higher: 11.7% for the first, -21.9% for the second.

Compared with `Cc1ccc(Nc2nc(N)nc(CN3CCN(C(=O)c4ccco4)CC3)n2)cc1Cl`, `COc1ccc(Cc2nnc(NC(=O)Nc3cccc(OC)c3)s2)cc1` is higher in “hERG current change (%, negative = inhibition) at 10uM” value: -74% for the first, 10.5% for the second.

Going from `CN(C)/N=C/c1ccc([N+](=O)[O-])cc1[N+](=O)[O-]` to `CS(=O)(=O)c1ccc2nc(NC(=O)c3cccc([N+](=O)[O-])c3)sc2c1`, the “hERG current change (%, negative = inhibition) at 10uM” value falls from 8.46% to 3.34%.

Compared with `CCSc1nnc(NC(=O)CCc2ccccc2)s1`, `CC(C)Cc1nnc(NC(=O)CCNC(=O)c2ccco2)s1` is lower in “hERG current change (%, negative = inhibition) at 10uM” value: 10.7% for the first, 10% for the second.

Compared with `N#Cc1c(/N=C/c2ccco2)sc2c1CCC2`, `CCc1sc(-c2c(C#N)c(N)nc3c2CCCCCC3)cc1[N+](=O)[O-]` is higher in “hERG current change (%, negative = inhibition) at 10uM” value: -1.35% for the first, 14% for the second.

First: CCOC(=O)N1CCC(N2CCN(S(=O)(=O)c3ccc(C)cc3)CC2)CC1.O=C(O)C(=O)O
Second: O=C(NCCO)C(=O)NCC1CCCN1S(=O)(=O)c1cccs1 (stereo not drawn)
The “hERG current change (%, negative = inhibition) at 10uM” value of the first is lower: -19.1% for the first, 1.65% for the second.

First: CCc1c(C(=O)Nc2cc(C)ccc2OC)[nH]c(C)c1C(C)=O
Second: COCCNC(=S)N(CCCO)Cc1cc2cc3c(cc2[nH]c1=O)OCCO3
The “hERG current change (%, negative = inhibition) at 10uM” value of the first is lower: -4.75% for the first, 14.2% for the second.

Compared with `CNC(=S)N1N=C(c2ccc(OC)cc2)CC1c1ccc(Cl)cc1Cl` (stereo not drawn), `O=C(N/N=C1\CCS(=O)(=O)c2ccc(F)cc21)c1ccc([N+](=O)[O-])cc1` is lower in “hERG current change (%, negative = inhibition) at 10uM” value: 6.61% for the first, -19.6% for the second.

Going from `CCN(CC(=O)NC1CCS(=O)(=O)C1)C(=O)COc1ccccc1-c1ccccc1` (stereo not drawn) to `CCN(CC)CC(O)c1cccn1-c1ccc(CNC(=O)NC(C)C)cc1` (stereo not drawn), the “hERG current change (%, negative = inhibition) at 10uM” value rises from 11.7% to 14%.
